Test results as given in the supplement of paper PMC11741623.
The other results are listed elsewhere or left out. Interaction screen of human proteins with wild-type SARS-CoV-2 proteins by split-DHFR complementation in yeast, 1 µg/mL methotrexate. Value = fitness of the pair (three or more lineages) minus that of the viral protein without a human partner, on a scale set by negative (0) and fused positive (1) controls, mean of up to three cultures; higher = more likely to interact. Active = false discovery rate below 0.05 (one-sided t-test) in at least one culture. Nearly all pairs are not hits, and differences among them are mostly noise (correlation between cultures about 0.3); most hits were seen in one culture only. Human sequences are the Swiss-Prot entries looked up by gene name; the clone may be another isoform. NSP2 values were corrected by the authors for a growth advantage. Listed are human proteins with a hit and a random twelfth of the others.

B1: TCF19, Q9Y242 (protein)
chain: MLPCFQLLRIGGGRGGDLYTFHPPAGAGCTYRLGHRADLCDVALRPQQEPGLISGIHAELHAEPRGDDWRVSLEDHSSQGTLVNNVRLPRGHRLELSDGDLLTFGPEGPPGTSPSEFYFMFQQVRVKPQDFAAITIPRSRGEARVGAGFRPMLPSQGAPQRPLSTFSPAPKATLILNSIGSLSKLRPQPLTFSPSWGGPKSLPVPAPPGEMGTTPSAPPQRNRRKSVHRVLAELDDESEPPENPPPVLMEPRKKLRVDKAPLTPTGNRRGRPRKYPVSAPMAPPAVGGGEPCAAPCCCLPQEETVAWVQCDGCDVWFHVACVGCSIQAAREADFRCPGCRAGIQT
B2: HEYL, Q9NQ87 (protein)
chain: MKRPKEPSGSDGESDGPIDVGQEGQLSQMARPLSTPSSSQMQARKKHRGIIEKRRRDRINSSLSELRRLVPTAFEKQGSSKLEKAEVLQMTVDHLKMLHATGGTGFFDARALAVDFRSIGFRECLTEVIRYLGVLEGPSSRADPVRIRLLSHLNSYAAEMEPSPTPTGPLAFPAWPWSFFHSCPGLPALSNQLAILGRVPSPVLPGVSSPAYPIPALRTAPLRRATGIILPARRNVLPSRGASSTRRARPLERPATPVPVAPSSRAARSSHIAPLLQSSSPTPPGPTGSAAYVAVPTPNSSSPGPAGRPAGAMLYHSWVSEITEIGAF
B3: TAS2R41, P59536 (protein)
chain: MQAALTAFFVLLFSLLSLLGIAANGFIVLVLGREWLRYGRLLPLDMILISLGASRFCLQLVGTVHNFYYSAQKVEYSGGLGRQFFHLHWHFLNSATFWFCSWLSVLFCVKIANITHSTFLWLKWRFPGWVPWLLLGSVLISFIITLLFFWVNYPVYQEFLIRKFSGNMTYKWNTRIETYYFPSLKLVIWSIPFSVFLVSIMLLINSLRRHTQRMQHNGHSLQDPSTQAHTRALKSLISFLILYALSFLSLIIDAAKFISMQNDFYWPWQIAVYLCISVHPFILIFSNLKLRSVFSQLLLLARGFWVA

Molecular target: SARS-CoV-2 E
Experiment: yeast fitness gain over the viral ORF with no human partner (scaled fitness); higher = more likely to interact
Procedure: (§1)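 Split mouse DHFR complementation in pooled diploid yeast: human ORFeome clones carry one fragment and viral ORFs the other; barcoded lineages compete in 1 µg/mL methotrexate and fitness is read by barcode sequencing in up to three cultures.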

Binder | yeast fitness gain
B1 | inactive: -0.0269
B2 | inactive: 0.0267
B3 | inactive: 0.125

Molecular target: SARS-CoV-2 M
Experiment: as above
Procedure: as §1

Binder | yeast fitness gain
B1 | inactive: 0.0191
B2 | inactive: -0.0432
B3 | inactive: 0.0375

Molecular target: SARS-CoV-2 N
Experiment: as above
Procedure: as §1

Binder | yeast fitness gain
B1 | inactive: -0.14
B2 | inactive: -0.231
B3 | inactive: 0.0523

Molecular target: SARS-CoV-2 NSP1
Experiment: as above
Procedure: as §1

Binder | yeast fitness gain
B1 | inactive: 0.0901
B2 | inactive: -0.0362
B3 | inactive: 0.0363

Molecular target: SARS-CoV-2 NSP10
Experiment: as above
Procedure: as §1

Binder | yeast fitness gain
B1 | inactive: -0.0101
B2 | inactive: 0.0388
B3 | inactive: 0.0389

Molecular target: SARS-CoV-2 NSP12
Experiment: as above
Procedure: as §1

Binder | yeast fitness gain
B1 | inactive: -0.0477
B2 | inactive: -0.0752
B3 | inactive: -0.0416

Molecular target: SARS-CoV-2 NSP13
Experiment: as above
Procedure: as §1

Binder | yeast fitness gain
B1 | inactive: -0.026
B2 | inactive: 0.00556
B3 | inactive: 0.00536

Molecular target: SARS-CoV-2 NSP15
Experiment: as above
Procedure: as §1

Binder | yeast fitness gain
B1 | inactive: -0.0139
B2 | inactive: -0.394
B3 | inactive: -0.063

Molecular target: SARS-CoV-2 NSP16
Experiment: as above
Procedure: as §1

Binder | yeast fitness gain
B1 | inactive: -0.0121
B3 | inactive: 0.0474

Molecular target: SARS-CoV-2 NSP2
Experiment: as above
Procedure: as §1

Binder | yeast fitness gain
B1 | inactive: -0.124
B2 | inactive: -0.13
B3 | inactive: -0.171

Molecular target: SARS-CoV-2 NSP5
Experiment: as above
Procedure: as §1

Binder | yeast fitness gain
B1 | inactive: -0.00104
B2 | inactive: 0.0324
B3 | inactive: 0.104

Molecular target: SARS-CoV-2 NSP6
Experiment: as above
Procedure: as §1

Binder | yeast fitness gain
B1 | inactive: 0.00325
B2 | inactive: -0.00907
B3 | inactive: -0.00814

Molecular target: SARS-CoV-2 NSP7
Experiment: as above
Procedure: as §1

Binder | yeast fitness gain
B1 | inactive: 0.0214
B2 | inactive: 0.0731
B3 | inactive: 0.0385

Molecular target: SARS-CoV-2 NSP8
Experiment: as above
Procedure: as §1

Binder | yeast fitness gain
B1 | inactive: 0.0282
B2 | inactive: 0.0883
B3 | inactive: -0.0167

Molecular target: SARS-CoV-2 NSP9
Experiment: as above
Procedure: as §1

Binder | yeast fitness gain
B1 | inactive: -0.0193
B3 | inactive: 0.119

Molecular target: SARS-CoV-2 ORF10
Experiment: as above
Procedure: as §1

Binder | yeast fitness gain
B1 | inactive: -0.0547
B2 | inactive: -0.101
B3 | inactive: 0.00284

Molecular target: SARS-CoV-2 ORF3A
Experiment: as above
Procedure: as §1

Binder | yeast fitness gain
B1 | inactive: 0.0698
B2 | inactive: -0.169
B3 | inactive: -0.00666

Molecular target: SARS-CoV-2 ORF3B
Experiment: as above
Procedure: as §1

Binder | yeast fitness gain
B1 | inactive: 0.017
B2 | inactive: 0.028
B3 | inactive: 0.00987

Molecular target: SARS-CoV-2 ORF6
Experiment: as above
Procedure: as §1

Binder | yeast fitness gain
B1 | inactive: -0.0353
B2 | inactive: 0.0558
B3 | inactive: 0.0242

Molecular target: SARS-CoV-2 ORF7A
Experiment: as above
Procedure: as §1

Binder | yeast fitness gain
B1 | inactive: 0.0349
B2 | inactive: -0.222
B3 | active: 0.402

Molecular target: SARS-CoV-2 ORF7B
Experiment: as above
Procedure: as §1

Binder | yeast fitness gain
B1 | inactive: -0.0266
B2 | inactive: -0.0335
B3 | inactive: 0.104

Molecular target: SARS-CoV-2 ORF8
Experiment: as above
Procedure: as §1

Binder | yeast fitness gain
B1 | inactive: 0.0059
B2 | inactive: 0.0573
B3 | inactive: -0.000901

Molecular target: SARS-CoV-2 ORF9B
Experiment: as above
Procedure: as §1

Binder | yeast fitness gain
B1 | inactive: -0.0338
B2 | inactive: -0.16
B3 | inactive: 0.0124

Molecular target: SARS-CoV-2 ORF9Bwu (the 73-codon ORF)
Experiment: as above
Procedure: as §1

Binder | yeast fitness gain
B1 | inactive: 0.0671
B3 | inactive: -0.014

Molecular target: SARS-CoV-2 S
Experiment: as above
Procedure: as §1

Binder | yeast fitness gain
B1 | inactive: -0.0614
B2 | inactive: 0.103
B3 | inactive: 0.0528

Molecular target: SARS-CoV-2 NSP14
Experiment: as above
Procedure: as §1

Binder | yeast fitness gain
B3 | inactive: -0.0372

Molecular target: SARS-CoV-2 NSP4
Experiment: as above
Procedure: as §1

Binder | yeast fitness gain
B3 | inactive: 0.315
